Measurements as given in PubChem BioAssay AID360 (National Center for Advancing Translational Sciences (NCATS), 2006).
Among all 48,000 compounds or so, about 550 (1.1%) were called active. Inconclusive results (about 4%) are left out. No stated cut-off is given here; in the data, active means potency below about 15 µM; inconclusive means mostly about 16 µM to 33 µM; inactive means weaker than that. The list shows a part of the results.

The molecules below were run against Lysosomal acid glucosylceramidase (Homo sapiens) (UniProt P04062) (assay: Glucocerebrosidase). Conditions: purified enzyme, resorufin glucoside fluorescence (screen aimed at inhibitors), 20 min.
UniProt P04062, sequence (P04062 whole entry, looked up): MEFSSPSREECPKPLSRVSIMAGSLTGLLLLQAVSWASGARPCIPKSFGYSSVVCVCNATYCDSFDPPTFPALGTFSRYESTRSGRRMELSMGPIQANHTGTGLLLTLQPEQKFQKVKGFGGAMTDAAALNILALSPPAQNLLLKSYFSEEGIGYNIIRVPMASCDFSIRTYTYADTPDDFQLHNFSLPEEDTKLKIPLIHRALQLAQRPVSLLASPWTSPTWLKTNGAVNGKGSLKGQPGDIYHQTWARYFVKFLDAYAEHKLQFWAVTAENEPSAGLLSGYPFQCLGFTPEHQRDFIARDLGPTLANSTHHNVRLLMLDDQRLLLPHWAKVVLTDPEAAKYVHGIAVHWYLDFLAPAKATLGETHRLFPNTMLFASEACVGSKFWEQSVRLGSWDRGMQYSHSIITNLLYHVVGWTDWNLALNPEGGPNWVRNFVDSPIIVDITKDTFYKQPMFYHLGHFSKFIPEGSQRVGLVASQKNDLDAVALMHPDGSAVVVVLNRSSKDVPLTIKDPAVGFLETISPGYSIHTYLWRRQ
Outline: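 Normal human glucocerebrosidase (0.2 nM final) was assayed with resorufin β-D-glucopyranoside (30 uM final) in 50mM citric acid/KH2PO4, 10mM sodium taurocholate, 0.01% tween-20, pH 5.9. Compounds were titrated; fluorescence (Ex 548, Em 600) read after 20 min at RT.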
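Further: the screen sought inhibitors.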
Potency means the concentration at half of the fitted maximal effect.

SMILES | Potency
CSc1ccccc1C(=O)NC1CC2CCC1C2 (stereo not drawn) | inactive: > 76.9 µM
CCOc1ccc(CC(=O)Nc2c(C(N)=O)oc3ccccc23)cc1OCC | inactive: > 76.9 µM
CCOC(=O)CC(=O)CSCC(=O)Nc1ccc(C)cc1 | inactive: > 76.9 µM
CCCC(c1nnnn1Cc1ccco1)N1CCC(C(N)=O)CC1 (stereo not drawn) | inactive: > 76.9 µM
CCOC(=O)c1[nH]cnc1C(=O)Nc1cccc(N)n1 | inactive: > 76.9 µM
N#CC1=C(N)Oc2n[nH]c(-c3ccccc3)c2C1c1ccncc1 (stereo not drawn) | inactive: > 76.9 µM
O=C(CSc1ncn[nH]1)Nc1nc(-c2ccccc2)ns1 | inactive: > 76.9 µM
Cc1nnc(N(C(=O)c2cnccn2)c2ccccc2)s1 | inactive: > 76.9 µM
C=CCc1ccccc1OCC(O)CN1CCN(C(=O)OCC)CC1 (stereo not drawn) | inactive: > 76.9 µM
COc1ccccc1NS(=O)(=O)c1ccc(C)c(C(N)=O)c1 | inactive: > 76.9 µM
COc1ccc(C2C(C(=O)N3CCN(c4ccccc4)CC3)c3ccccc3C(=O)N2C)cc1 (stereo not drawn) | inactive: > 76.9 µM
Cc1cc(N2CCN(c3ccccn3)CC2)n2nc(C)nc2n1 | inactive: > 76.9 µM
Cc1noc(C)c1C(=O)N1CCN(C(=O)c2sc3cc(Cl)ccc3c2Cl)CC1 | inactive: > 76.9 µM
C=CCN(CC=C)S(=O)(=O)c1ccc2nc(NC(=O)C(C)C)sc2c1 | inactive: > 76.9 µM
O=C(COC(=O)C1COc2ccccc2O1)NC(=O)NC1CCCC1 (stereo not drawn) | inactive: > 76.9 µM
CC(=O)N1CCc2cc(Br)cc(S(=O)(=O)N3CCN(C(=O)c4ccco4)CC3)c21 | inactive: > 76.9 µM
CCN(CC)S(=O)(=O)c1ccc(NC(=O)Cn2cnc3ccccc3c2=O)cc1 | inactive: > 76.9 µM
CC(C)(C)Nc1cccccc1=O | inactive: > 76.9 µM
Cc1cccc(CN2CCNC2=O)c1 | inactive: > 76.9 µM
O=C(NCc1cn2ccccc2n1)c1ccccc1 | inactive: > 76.9 µM
CCCCCCn1cnc2c(c1=O)c1nc3ccccc3nc1n2Cc1cccs1 | inactive: > 76.9 µM
Cc1nnc2n1N=CC=C(c1ccccc1)S2 | inactive: > 76.9 µM
Cc1nc(C)c(C(=O)Nc2ccccc2-c2ccccc2)o1 | inactive: > 76.9 µM
COc1ccc(C2(O)CCN(C(=O)Cc3cccnc3)CC2)cc1 | inactive: > 76.9 µM

SMILES | Potency
COc1ccc(CCNC(=O)CCS(=O)(=O)c2cccc3nsnc23)cc1OC | inactive: > 76.9 µM
CC(=O)Nc1ccccc1-c1ccc(C)o1 | inactive: > 76.9 µM
Clc1ccc(CSc2nncn2-c2ccccn2)cc1 | inactive: > 76.9 µM
Cc1ccc(NC(=O)c2c(C)nc(Nc3nc4ccccc4o3)nc2C)cc1 | inactive: > 76.9 µM
O=C(Nc1ccc(Oc2ccccc2)cc1)c1ccco1 | inactive: > 76.9 µM
O=C(Nc1ccc2c(c1)OCO2)c1cccc2c1C(=O)N(Cc1cccnc1)C2 | inactive: > 76.9 µM
Cc1ccc(NC(=O)CSc2nnc(CCCCCNC(=O)OC(C)(C)C)o2)c(C)c1 | inactive: > 76.9 µM
O=C(NCC1CCCO1)C1CCCN(Cc2cnn(-c3ccccc3)c2-n2cccc2)C1 (stereo not drawn) | inactive: > 76.9 µM
CCOC(=O)CNC(=O)c1c(C)nn(-c2ccccc2)c1Cl | inactive: > 76.9 µM
O=C(NCCN1CCOCC1)c1cccc(S(=O)(=O)N2CCCCCC2)c1 | inactive
CC1CCCC(C)N1C(=O)CN1C(=O)C(C)(C)Oc2ccc(C(=O)NC3CCCC3)cc21 (stereo not drawn) | inactive: > 76.9 µM
CCS(=O)(=O)n1nc(-c2ccco2)nc1SC | inactive: > 76.9 µM
COc1ccccc1NC(=O)Cc1csc(N)n1 | inactive: > 76.9 µM
COC(=O)CSc1nnc(-c2ccoc2C)n1-c1ccc(OC)cc1 | inactive: > 76.9 µM
O=C(CSc1nnc(Cc2ccccc2)n1C1CCCCC1)N1CCOCC1 | inactive: > 76.9 µM
Cc1noc(C)c1CSc1ncnc2sc(C)c(C)c12 | inactive: > 76.9 µM
COc1ccc(CNC(=O)c2cc3c(=O)n4ccccc4nc3n(CC3CCCO3)c2=N)cc1 (stereo not drawn) | inactive: > 76.9 µM
COCCn1c(C)cc(C(=O)CSc2nc(C)cc(C)c2C#N)c1C | inactive: > 76.9 µM
O=C(C1CC1)N1CCc2cc(Br)cc(S(=O)(=O)NC3CCCCC3)c21 | inactive: > 76.9 µM
COc1cc(NC(=O)C2CCCCN2)ccc1OCC(C)C (stereo not drawn) | inactive: > 76.9 µM
Cc1sc2nc(SCc3nnc(-c4cccs4)o3)n(C3CCCC3)c(=O)c2c1C | inactive: > 76.9 µM
CC(C)(C)c1ccc(-c2nnc(SCC(=O)O)n2N)cc1 | inactive: > 76.9 µM
COc1cccc(NS(=O)(=O)c2cc(C)sc2C)c1 | inactive: > 76.9 µM
Cn1nc(CC(=O)N2CCN(c3ccccc3)CC2)c2ccccc2c1=O | inactive: > 76.9 µM

SMILES | Potency
Nc1nc(-c2ccc(Cl)cc2)cc(C(F)(F)F)n1 | inactive: > 76.9 µM
CCC(=Nc1ccc(Cc2ccncc2)cc1)c1c(O)n(C)c(=O)n(C)c1=O | inactive: > 76.9 µM
O=C1CCCC2=C1C(c1ccccc1)CC(=O)N2c1ccccc1 (stereo not drawn) | inactive: > 76.9 µM
COCCN(C(=O)C(C)C)c1nnc(-c2cccc(C)c2)s1 | inactive: > 76.9 µM
O=C(COc1ccccc1)NC1CCN(Cc2ccccc2)CC1 | inactive: > 76.9 µM
CCCSc1nnc(Sc2nnnn2-c2ccccc2)s1 | inactive: > 76.9 µM
COc1cccc(OC)c1C(=O)N1CCN(S(=O)(=O)c2ccccc2)CC1 | inactive: > 76.9 µM
CC1(C)N=C(/C=N/O)C=[N+]1[O-] | inactive: > 76.9 µM
CC1(C)CC2(CCCN3C(=O)CSC32)CCS1 (stereo not drawn) | inactive: > 76.9 µM
O=C(c1cccs1)N1CCOCC1 | inactive: > 76.9 µM
Cc1c(NS(=O)(=O)c2ccc3c(c2)n(C)c(=O)n3C)c(=O)n(-c2ccccc2)n1C | inactive: > 76.9 µM
Cc1ccc(C)c(/C(O)=C2/C(=O)C(=O)N(CCN3CCOCC3)C2c2ccco2)c1 (stereo not drawn) | inactive: > 76.9 µM
Cc1ccc(-c2nn(C)c(=O)c3ccccc23)cc1S(=O)(=O)N1CCOCC1 | inactive: > 76.9 µM
CN(C)S(=O)(=O)NCc1ccc2c(c1)OCO2 | inactive: > 76.9 µM
Cc1c(C#N)c2ccccc2n1CC(=O)O | inactive: > 76.9 µM
CCCN(CCC)S(=O)(=O)c1ccc(NS(C)(=O)=O)cc1 | inactive: > 76.9 µM
COc1ccccc1C(=O)Nc1ncc2c(n1)CC(c1ccco1)CC2=O (stereo not drawn) | inactive: > 76.9 µM
CCN1CCN(CC(=O)Nc2cc(F)ccc2C)CC1 | inactive: > 76.9 µM
[O-][n+]1onc2c1CCc1nnccc1-2 | inactive: > 76.9 µM
COc1ccc(-c2nnc3n2-c2ccccc2SC3)cc1OC | inactive: > 76.9 µM
CSCC[C@H](NC(=O)NCc1ccc(F)cc1)C(=O)O | inactive: > 76.9 µM
COC(=O)c1ccc(CSc2nc3sc4c(c3c(=O)n2C)CCCC4)o1 | inactive: > 76.9 µM
c1cncc(-c2nc3cc(Cc4ccc5oc(-c6cccnc6)nc5c4)ccc3o2)c1 | inactive: > 76.9 µM
Oc1ccc2[nH]cnc2c1CN1CCCCC1 | inactive: > 76.9 µM

SMILES | Potency
O=C(COC(=O)CNC(=O)C1CCCCC1)Nc1ccc(Cl)cn1 | inactive: > 76.9 µM
CCOC(=O)Cn1cc(C(=O)c2ccco2)c2ccccc21 | inactive: > 76.9 µM
O=C(CSc1nnc(NCc2ccccc2)s1)c1ccco1 | inactive: > 76.9 µM
O=C(COc1ccc(Cl)cc1Cl)Nc1ccc2nc3n(c(=O)c2c1)CCCC3 | inactive: > 76.9 µM
Cc1cc(-c2cccnc2)c(C#N)c(SCC#N)n1 | inactive: > 76.9 µM
Cc1noc(NS(=O)(=O)c2ccc(NC(=O)CS(=O)(=O)c3ccccc3)cc2)c1C | inactive: > 76.9 µM
CCCCCC(=O)Nc1ccc2oc(-c3cncc(Br)c3)nc2c1 | inactive: > 76.9 µM
CC1CCN(S(=O)(=O)c2cccc(C(N)=O)c2)CC1 | inactive: > 76.9 µM
Cc1cc2cc(CN3C(=O)c4ccccc4C3=O)ccc2[nH]1 | inactive: > 76.9 µM
COC(=O)C1=C(N)Oc2cc(C)n(Cc3cccnc3)c(=O)c2C1c1ccc(OC)c(OC)c1OC (stereo not drawn) | inactive: > 76.9 µM
CCN(CC)S(=O)(=O)c1ccc2c(c1)c(=O)c(C(=O)NCCOC)cn2C | inactive: > 76.9 µM
CCCn1c(SCC(=O)NC(=O)NCc2ccco2)n[nH]c1=O | inactive: > 76.9 µM
CN(Cc1ccc(OC(F)F)cc1)C(=O)c1ccc2nccnc2c1 | inactive: > 76.9 µM
Cc1ccc(C(=O)CSc2nc(C)cc(SCc3nnc(-c4ccccc4)o3)n2)cc1 | inactive: > 76.9 µM
CN(C)CCN1C(=O)c2oc3ccccc3c(=O)c2C1c1cccc(Br)c1 (stereo not drawn) | inactive: > 76.9 µM
CCc1ccc(CNc2ccc(O)cc2)cc1 | active: 11 µM
COc1ccc2nc(NC(=O)c3ccoc3C)sc2c1 | inactive: > 76.9 µM
COCC(=O)Nc1ccc(S(=O)(=O)NCCc2ccccc2)cc1 | inactive: > 76.9 µM
N#Cc1nc(COc2cccc(Cl)c2)oc1N1CCN(c2ccccc2)CC1 | inactive: > 76.9 µM
CC(C)(CNS(=O)(=O)c1ccc(F)cc1)CNS(=O)(=O)c1ccc(F)cc1 | inactive: > 76.9 µM
COC(=O)C(NC(=O)C(C)Oc1ccccc1)C(C)C (stereo not drawn) | inactive: > 76.9 µM
